# “And” between values parts separate entries of the source, which are not always exact repeats. Equal values may be shown once. This is one part of the list. The protein was read in a cell extract, so binding may be indirect.
# Legend:
# Test in all cases: pull-down
# [1] = molecular target: T1, RFC1 (Homo sapiens) (UniProt P35251); details: 150 mM NaCl, 50 mM Tris pH 8.0, 0.25% NP-40, 1 mM DTT, 4 C, 2 h, 100 ug nuclear extract, double strand, one strand shown
# T1 sequence: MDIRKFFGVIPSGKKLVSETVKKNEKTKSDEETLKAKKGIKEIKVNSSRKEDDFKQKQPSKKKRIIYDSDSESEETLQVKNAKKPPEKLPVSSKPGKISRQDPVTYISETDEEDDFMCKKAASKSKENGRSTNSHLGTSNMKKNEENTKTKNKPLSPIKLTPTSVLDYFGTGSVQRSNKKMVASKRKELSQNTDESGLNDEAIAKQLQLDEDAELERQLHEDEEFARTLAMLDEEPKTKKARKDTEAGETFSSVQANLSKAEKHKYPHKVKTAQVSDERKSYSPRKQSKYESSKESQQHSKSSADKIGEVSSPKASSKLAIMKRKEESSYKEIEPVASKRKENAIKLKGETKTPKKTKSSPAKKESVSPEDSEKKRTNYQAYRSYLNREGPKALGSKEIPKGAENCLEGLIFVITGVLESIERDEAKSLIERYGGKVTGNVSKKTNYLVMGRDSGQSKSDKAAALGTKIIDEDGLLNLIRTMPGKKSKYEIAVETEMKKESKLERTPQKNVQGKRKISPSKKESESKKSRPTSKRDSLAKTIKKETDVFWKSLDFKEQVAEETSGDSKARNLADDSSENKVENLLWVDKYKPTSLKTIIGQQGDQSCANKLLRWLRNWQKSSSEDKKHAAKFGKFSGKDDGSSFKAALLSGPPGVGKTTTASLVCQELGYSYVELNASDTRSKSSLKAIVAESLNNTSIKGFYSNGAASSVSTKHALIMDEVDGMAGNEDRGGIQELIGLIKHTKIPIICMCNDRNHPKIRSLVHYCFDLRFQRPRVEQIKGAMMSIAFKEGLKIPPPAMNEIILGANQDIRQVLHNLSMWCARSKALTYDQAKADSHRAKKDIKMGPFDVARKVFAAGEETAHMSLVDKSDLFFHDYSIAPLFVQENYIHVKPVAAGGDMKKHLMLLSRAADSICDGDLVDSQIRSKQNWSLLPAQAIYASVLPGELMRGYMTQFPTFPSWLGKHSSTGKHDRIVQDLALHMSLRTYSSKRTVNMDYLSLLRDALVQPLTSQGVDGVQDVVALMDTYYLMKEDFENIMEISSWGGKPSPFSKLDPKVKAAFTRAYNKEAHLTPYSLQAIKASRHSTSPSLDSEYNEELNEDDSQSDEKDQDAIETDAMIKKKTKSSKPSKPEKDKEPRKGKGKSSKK
# [2] = molecular target: RFC2 (Homo sapiens) (UniProt P35250); details: 150 mM NaCl, 50 mM Tris pH 8.0, 0.25% NP-40, 1 mM DTT, 4 C, 2 h, 100 ug nuclear extract, double strand, one strand shown
# Chain of UniProt P35250 (P35250 whole entry): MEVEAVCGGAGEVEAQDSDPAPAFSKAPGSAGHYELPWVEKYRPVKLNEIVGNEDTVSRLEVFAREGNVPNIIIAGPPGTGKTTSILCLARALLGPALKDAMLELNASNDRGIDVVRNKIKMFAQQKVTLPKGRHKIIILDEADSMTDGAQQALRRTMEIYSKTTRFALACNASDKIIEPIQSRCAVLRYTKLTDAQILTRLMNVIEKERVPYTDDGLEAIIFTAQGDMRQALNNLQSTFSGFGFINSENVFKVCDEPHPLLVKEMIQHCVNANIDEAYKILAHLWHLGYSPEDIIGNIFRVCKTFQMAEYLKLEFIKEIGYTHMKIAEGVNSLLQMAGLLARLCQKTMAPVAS
# [3] = molecular target: RFC4 (Homo sapiens) (UniProt P35249); details: 150 mM NaCl, 50 mM Tris pH 8.0, 0.25% NP-40, 1 mM DTT, 4 C, 2 h, 100 ug nuclear extract, double strand, one strand shown
# Chain of UniProt P35249 (P35249 whole entry): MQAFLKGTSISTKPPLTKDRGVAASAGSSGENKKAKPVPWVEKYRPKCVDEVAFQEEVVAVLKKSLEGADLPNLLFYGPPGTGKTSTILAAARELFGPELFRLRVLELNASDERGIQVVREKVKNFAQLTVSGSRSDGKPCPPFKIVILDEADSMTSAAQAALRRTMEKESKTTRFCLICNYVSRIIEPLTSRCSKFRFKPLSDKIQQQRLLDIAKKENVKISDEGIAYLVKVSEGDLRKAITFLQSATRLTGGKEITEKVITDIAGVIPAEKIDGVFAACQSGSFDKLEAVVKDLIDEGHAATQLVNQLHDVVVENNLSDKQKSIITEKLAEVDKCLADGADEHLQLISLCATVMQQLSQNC
# [4] = molecular target: RFC5 (Homo sapiens) (UniProt P40937); details: 150 mM NaCl, 50 mM Tris pH 8.0, 0.25% NP-40, 1 mM DTT, 4 C, 2 h, 100 ug nuclear extract, double strand, one strand shown
# Chain of UniProt P40937 (P40937 whole entry): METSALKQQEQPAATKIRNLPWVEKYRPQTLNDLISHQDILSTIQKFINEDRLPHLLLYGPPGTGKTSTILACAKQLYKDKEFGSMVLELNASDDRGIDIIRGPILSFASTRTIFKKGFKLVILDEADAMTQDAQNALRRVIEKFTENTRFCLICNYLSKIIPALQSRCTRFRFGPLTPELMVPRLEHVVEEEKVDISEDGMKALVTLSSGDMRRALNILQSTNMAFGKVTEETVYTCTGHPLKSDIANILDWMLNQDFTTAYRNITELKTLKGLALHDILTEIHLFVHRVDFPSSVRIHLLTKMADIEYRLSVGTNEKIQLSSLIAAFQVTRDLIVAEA
# [5] = molecular target: RPA1 (Homo sapiens) (UniProt P27694); details: 150 mM NaCl, 50 mM Tris pH 8.0, 0.25% NP-40, 1 mM DTT; 4 C, 2 h; 100 ug nuclear extract; double strand, one strand shown
# Chain of UniProt P27694 (P27694 whole entry): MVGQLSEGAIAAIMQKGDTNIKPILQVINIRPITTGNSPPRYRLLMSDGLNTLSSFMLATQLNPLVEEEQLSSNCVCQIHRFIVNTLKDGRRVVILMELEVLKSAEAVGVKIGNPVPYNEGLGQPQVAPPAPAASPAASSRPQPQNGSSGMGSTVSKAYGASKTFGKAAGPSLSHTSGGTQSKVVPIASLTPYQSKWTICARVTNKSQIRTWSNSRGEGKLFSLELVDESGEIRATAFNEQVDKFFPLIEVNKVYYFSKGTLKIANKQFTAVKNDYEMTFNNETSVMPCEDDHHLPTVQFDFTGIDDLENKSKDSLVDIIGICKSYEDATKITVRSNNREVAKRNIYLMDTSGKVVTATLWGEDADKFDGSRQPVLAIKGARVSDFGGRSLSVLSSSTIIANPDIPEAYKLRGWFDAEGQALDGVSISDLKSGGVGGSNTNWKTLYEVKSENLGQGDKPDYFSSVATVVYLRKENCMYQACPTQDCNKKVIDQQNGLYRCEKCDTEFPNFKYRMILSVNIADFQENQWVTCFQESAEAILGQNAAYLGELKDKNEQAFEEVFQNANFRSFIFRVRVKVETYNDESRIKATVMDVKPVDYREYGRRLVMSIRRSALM
# [6] = molecular target: RPL27 (Homo sapiens) (UniProt P61353); details: 150 mM NaCl, 50 mM Tris pH 8.0, 0.25% NP-40, 1 mM DTT; 4 C, 2 h; 100 ug nuclear extract; double strand, one strand shown
# [7] = molecular target: RAD23B (Homo sapiens) (UniProt P54727); details: 150 mM NaCl, 50 mM Tris pH 8.0, 0.25% NP-40, 1 mM DTT; 4 C, 2 h; 100 ug nuclear extract; double strand, one strand shown
# Chain of UniProt P54727 (P54727 whole entry): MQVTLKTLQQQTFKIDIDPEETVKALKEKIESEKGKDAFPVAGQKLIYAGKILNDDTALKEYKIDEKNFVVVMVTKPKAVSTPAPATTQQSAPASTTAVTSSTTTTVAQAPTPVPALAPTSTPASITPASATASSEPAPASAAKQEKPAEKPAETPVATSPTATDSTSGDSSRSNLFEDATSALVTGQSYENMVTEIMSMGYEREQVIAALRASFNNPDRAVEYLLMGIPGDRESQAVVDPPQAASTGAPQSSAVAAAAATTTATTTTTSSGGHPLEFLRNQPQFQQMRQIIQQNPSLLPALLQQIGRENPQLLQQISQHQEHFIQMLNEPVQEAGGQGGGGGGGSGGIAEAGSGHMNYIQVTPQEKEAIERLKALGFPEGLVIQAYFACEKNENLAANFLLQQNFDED
# [8] = molecular target: RMI1 (Homo sapiens) (UniProt Q9H9A7); details: 150 mM NaCl, 50 mM Tris pH 8.0, 0.25% NP-40, 1 mM DTT; 4 C, 2 h; 100 ug nuclear extract; double strand, one strand shown
# Chain of UniProt Q9H9A7 (Q9H9A7 whole entry): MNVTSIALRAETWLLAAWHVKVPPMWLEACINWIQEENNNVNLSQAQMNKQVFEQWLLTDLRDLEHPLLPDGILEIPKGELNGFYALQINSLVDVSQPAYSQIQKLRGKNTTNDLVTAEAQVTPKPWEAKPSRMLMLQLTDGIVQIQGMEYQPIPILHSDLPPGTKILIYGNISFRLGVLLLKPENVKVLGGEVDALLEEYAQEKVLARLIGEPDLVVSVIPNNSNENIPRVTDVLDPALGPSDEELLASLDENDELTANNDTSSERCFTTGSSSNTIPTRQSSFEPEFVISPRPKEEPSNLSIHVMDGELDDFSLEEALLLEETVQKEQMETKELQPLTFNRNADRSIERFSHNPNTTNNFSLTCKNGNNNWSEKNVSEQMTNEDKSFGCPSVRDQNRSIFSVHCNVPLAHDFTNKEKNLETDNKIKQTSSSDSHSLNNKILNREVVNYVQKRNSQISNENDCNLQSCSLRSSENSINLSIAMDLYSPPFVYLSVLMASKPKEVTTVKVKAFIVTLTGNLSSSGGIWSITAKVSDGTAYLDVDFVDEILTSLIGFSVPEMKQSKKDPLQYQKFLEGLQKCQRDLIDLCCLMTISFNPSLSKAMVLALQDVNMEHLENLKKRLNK
# [9] = molecular target: T2, RBM14 (Homo sapiens) (UniProt Q96PK6); details: 5mC at 15,17 (strand 1); 5mC at 14,16 (strand 2); 150 mM NaCl, 50 mM Tris pH 8.0, 0.25% NP-40, 1 mM DTT; 4 C, 2 h; 100 ug nuclear extract; double strand, one strand shown
# T2 sequence: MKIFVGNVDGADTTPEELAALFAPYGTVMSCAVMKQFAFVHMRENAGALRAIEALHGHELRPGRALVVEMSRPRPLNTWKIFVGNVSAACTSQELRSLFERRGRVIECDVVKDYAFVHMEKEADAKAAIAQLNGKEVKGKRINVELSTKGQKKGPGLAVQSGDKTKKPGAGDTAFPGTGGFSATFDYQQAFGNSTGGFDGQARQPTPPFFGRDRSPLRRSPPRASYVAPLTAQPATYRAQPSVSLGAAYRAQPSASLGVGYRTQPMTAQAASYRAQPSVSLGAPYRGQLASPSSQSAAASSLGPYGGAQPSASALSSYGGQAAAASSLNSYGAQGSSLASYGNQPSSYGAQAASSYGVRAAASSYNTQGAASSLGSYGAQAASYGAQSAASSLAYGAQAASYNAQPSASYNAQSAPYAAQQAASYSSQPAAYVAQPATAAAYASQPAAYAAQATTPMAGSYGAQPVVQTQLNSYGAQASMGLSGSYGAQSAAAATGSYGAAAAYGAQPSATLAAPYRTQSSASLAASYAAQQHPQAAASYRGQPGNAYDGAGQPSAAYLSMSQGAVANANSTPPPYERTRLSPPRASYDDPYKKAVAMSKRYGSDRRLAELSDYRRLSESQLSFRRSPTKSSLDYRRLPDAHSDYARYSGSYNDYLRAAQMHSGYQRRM
# [10] = 5mC at 15,17 (strand 1), 5mC at 14,16 (strand 2)
sequence,measurement,setting,value
GCCGCCGCCCTTCTCGCGAGACTGCCGGGCC [CGCG bait],half-maximal binding,[1],240 nM and 184 nM
same,half-maximal binding,[2],210 nM
same,half-maximal binding,[3],190 nM and 245 nM
same,half-maximal binding,[4],213 nM
same,half-maximal binding,[5],328 nM
same,half-maximal binding,[6],464 nM
GAGAGAAAATAAAACTGGCT [SP/KLF negative control bait],half-maximal binding,[7],133 nM
same,half-maximal binding,[8],219 nM
GAGAGCCCCGCCCCCTGGCT [SP/KLF bait],half-maximal binding,[7],238 nM
GCCGCCGCCCTTCTCGCGAGACTGCCGGGCC [methylated CGCG bait],half-maximal binding,[9],185 nM
same,half-maximal binding,[1]; [10],181 nM
same,half-maximal binding,[2]; [10],198 nM
same,half-maximal binding,[3]; [10],190 nM
same,half-maximal binding,[4]; [10],157 nM
